# From PubChem BioAssay AID485344 (National Center for Advancing Translational Sciences (NCATS), 2010)
# Among all 340,000 compounds or so, about 6,900 (2%) were called active. Rule as the data show it: active = inhibition above about 30%; inactive = below that, where a call was filed. Only a part is listed here, and it is no random draw. Entries without a call were filed so in the source.
# Target: D(2) dopamine receptor (Homo sapiens) (UniProt P14416)
# Assay: HTS Assay for Allosteric Antagonists of the Human D2 Dopamine Receptor: Primary Screen for Antagonists; also: 0% is about no effect
# Details: HEK293 TREx D2 cells, calcium flux, dopamine EC80; at 10 µM; stronger effect = higher value
# Summary of the method: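 Calcium mobilization kinetics were recorded at 1 s intervals in tetracycline-induced HEK293 T-REx D2 cells, first for 180 s after compound addition and then 180 s after EC80 dopamine.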
# Sequence of UniProt P14416 (P14416 whole entry, looked up): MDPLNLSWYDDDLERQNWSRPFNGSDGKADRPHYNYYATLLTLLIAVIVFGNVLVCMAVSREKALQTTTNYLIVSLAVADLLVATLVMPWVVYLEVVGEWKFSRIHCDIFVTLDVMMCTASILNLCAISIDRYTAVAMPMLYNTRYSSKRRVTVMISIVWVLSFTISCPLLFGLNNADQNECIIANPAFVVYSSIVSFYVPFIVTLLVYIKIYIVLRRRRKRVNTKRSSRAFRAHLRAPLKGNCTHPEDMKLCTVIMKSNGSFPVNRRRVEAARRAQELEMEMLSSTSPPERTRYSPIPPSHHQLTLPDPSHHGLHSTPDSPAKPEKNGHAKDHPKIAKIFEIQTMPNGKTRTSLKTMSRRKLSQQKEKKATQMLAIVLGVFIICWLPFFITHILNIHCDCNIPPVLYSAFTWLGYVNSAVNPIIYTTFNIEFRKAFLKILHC
row,SMILES,inhibition
1,O=C(NCc1ccc2c(c1)CCN2C(=O)c1ccncc1)c1ccccc1Cl,17.1%
2,Cn1c(=O)c2c(nc(CN3CCN(c4ccccc4F)CC3)n2Cc2ccccc2F)n(C)c1=O,6.8%
3,COc1ccc(OC)c(CCNC(=O)c2cc3cccc4c3n2CC(C)S4)c1 (stereo unspecified),8.45%
4,Cn1c2ccccc2c2c(C(=O)N3CCN(c4cccc(Cl)c4)CC3)cn(C3CCCCC3)c(=O)c21,-2.19%
5,COc1ccccc1CCNC(=O)C(=O)NCC(c1ccco1)S(=O)(=O)c1ccc(F)cc1 (stereo unspecified),-20%
6,COc1cccc(N2CCN(C(=O)C3CCCN(S(=O)(=O)c4ccc5c(c4)oc(=O)n5C)C3)CC2)c1 (stereo unspecified),10.6%
7,O=C1C(=O)N(C2CCN(S(=O)(=O)c3ccccc3)CC2)CCN1Cc1ccccc1,-13.9%
8,CC(C)(C)OC(=O)N1CCC(c2c(C(=O)Nc3ccc4c(c3)OCCO4)cnn2-c2ccc(F)cc2F)CC1,8.57%
9,COc1ccc(N2CC(NC(=O)COc3ccc(F)cc3)CC2=O)cc1OC (stereo unspecified),15.8%
10,CCOC(=O)c1c(C)[nH]c(C)c1S(=O)(=O)NCC1CCN(Cc2cccc(F)c2)CC1,active: 73.9%
11,CCOC(=O)C(=O)NCC(c1cccnc1)N1CCN(c2ccccc2)CC1 (stereo unspecified),0.397%
12,CCOC(=O)CC(NC(=O)c1cc2cc(Br)cc(OC)c2oc1=O)c1ccc(OC)cc1 (stereo unspecified),-2.21%
13,O=C(Nc1cccc(OCc2cc(=O)n3ccccc3n2)c1)c1ccccc1Br,7.62%
14,CCC1CN(C(=O)NCc2ccccc2)c2cc(Cl)ccc2O1 (stereo unspecified),-5.27%
15,COc1ccc(CNC(=O)Nc2cccc(C(F)(F)F)c2)cc1OC,active: 45.8%
16,Cc1ccc(-c2nc3c(c(SCC(=O)N(C)c4ccccc4)n2)Cc2c(CO)cnc(C)c2O3)cc1,-7.64%
17,CCN(CC)c1cc(C)c2cc(NC(=O)c3ccccc3Cl)ccc2n1,-19%
18,CCOC(=O)c1ccc(NC(=O)CSc2ccc(-c3ccccn3)nn2)cc1,11.5%
19,Cc1ccc(C(C)C)c(OCCCN2CCc3ccccc3C2)c1,active: 30.5%
20,COc1ccc(S(=O)(=O)NCCc2nnc3ccc(SCC(=O)Nc4cc(C)cc(C)c4)nn23)cc1,6.31%
21,CCOc1ccc(NC(=O)C2CCN(c3nc4ccccc4[nH]3)CC2)cc1,17.7%
22,COC(=O)c1c(SC)nc2ccccc2c1OCc1ccccc1Cl,-7.63%
23,CCSc1ccc(C(=O)Nc2ccc(-c3nc4ccc(C)cc4s3)cc2)cc1,-25.5%
24,COc1ccc2c(C)c(CCC(=O)NCc3ccc(C)cc3)c(=O)oc2c1,10.8%

row,SMILES,inhibition
1,CCC(CC)C(=O)OCc1cc(=O)n2nc(C3CCCCC3)sc2n1,2.73%
2,Cc1ccc(-c2c(C(=O)N3CCN(c4cccc(C)c4)C(C)C3)oc(=O)c3ccccc23)cc1 (stereo unspecified),6.65%
3,CCOc1ccc(CN2CCc3nc(N4CCN(c5ncccn5)CC4)ncc3C2)cc1OC,-6.34%
4,CCOC(=O)c1c(C)[nH]c(C)c1S(=O)(=O)N(C)CC(=O)N1CCN(c2ccc(Cl)cc2)CC1,3.97%
5,COC(=O)C1=C(C)N=C2SCCC(=O)N2C1c1ccc(OCc2ccccc2)c(OC)c1 (stereo unspecified),-0.278%
6,COCCN1Cc2cccc(C(=O)Nc3ccc(C)cc3)c2C1=O,active: 40.7%
7,CCOc1ccc(N2C(=O)CS(=O)(=O)C23C(=O)N(Cc2cccc(Cl)c2)c2ccccc23)cc1 (stereo unspecified),-1.29%
8,CC(C)(C)OC(=O)N1CCC(c2c(C(=O)NCCc3ccsc3)cnn2-c2ccccc2Cl)CC1,-0.923%
9,CC1=C(C(=O)Nc2cc(Cl)ccc2C)C2(CCCCC2)OC1=O,0.544%
10,O=C(NCCc1csc(-c2ccc(F)cc2)n1)c1ccco1,9.89%
11,Cc1cc(C)n2nc(CNC(=O)c3ccccc3Cl)nc2n1,-7.55%
12,Cc1cc(C)cc(NC(=O)CCc2nnc3n(C)c(=O)c4sccc4n23)c1,-4.44%
13,OC(CSc1ccc(F)cc1)CN1CCN(c2ccccc2)CC1 (stereo unspecified),active: 75.8%
14,CCC(C(=O)Nc1ccc(C(C)=O)cc1)n1cnc2nc3c(cc2c1=O)CCCC3 (stereo unspecified),4.49%
15,Cn1c(CN2CCCCC2)nc2cc(NS(=O)(=O)c3ccc(Cl)cc3)ccc21,active: 72.6%
16,CCOc1ccccc1NS(=O)(=O)c1ccc2c(c1)CC(C)N2C(=O)C1CC1 (stereo unspecified),1.94%
17,COc1cc(C(CC(=O)NCc2ccccc2)N2Cc3ccccc3C2=O)cc(OC)c1OC (stereo unspecified),10.1%
18,OCCC1CN(Cc2cccc3nonc23)CCN1C1CCCCC1 (stereo unspecified),active: 37.7%
19,CCc1c(C)nc2nncn2c1Nc1ccc(Cl)cc1,11.4%
20,CCc1nc2ccccc2n2c(-c3ccccc3)c3c(=O)n(C)c(=O)n(C)c3c12,-1.43%
21,COc1ccc(-n2c(=O)c3c4c(sc3n(Cc3ccc(C)cc3C)c2=O)CCC4)c(OC)c1,-11.4%
22,COc1ccc(Cl)cc1NC(=O)CSc1nnc(C)n2c1cc1occc12,-10.7%
23,Brc1ccccc1OCCCCCN1CCOCC1,active: 36.4%
24,O=C(NCc1ccccc1)C(=O)NCC(c1ccco1)S(=O)(=O)c1ccccc1 (stereo unspecified),-12%

row,SMILES,inhibition
1,COc1ccc(N2CCN(C(CNC(=O)C(=O)NCc3ccc(F)cc3)c3cccnc3)CC2)cc1 (stereo unspecified),-22.7%
2,CCCN(CCC)c1nn2c(=O)c(C(=O)NCc3cccc(OC)c3)cnc2s1,26.7%
3,Cc1cc2nn(-c3ccc(F)cc3)nc2cc1NC(=O)c1cc(Cl)ccc1Cl,-0.39%
4,CCCCN1C(=O)C(O)(c2c(C)[nH]c3ccccc23)c2cc(Br)ccc21 (stereo unspecified),-1.39%
5,Cc1ccc(CCNC(=O)CN2C(=O)COc3ccc(S(=O)(=O)N4CCC(C)CC4)cc32)cc1,3.58%
6,CCN1CCN(C(c2cccc(Cl)c2)c2c(O)cc(C)n(CCOC)c2=O)CC1 (stereo unspecified),4.41%
7,Cc1cc(OCC(=O)NCC2(N(C)C)CCCCC2)cc(C)c1Cl,-13.9%
8,COc1cccc(C2=NS(=O)(=O)N(C)C(C(=O)Nc3cccc(O)c3)=C2)c1,-3.85%
9,Cc1ccc(-c2nnc(SCC(=O)NCCC(C)C)nc2-c2ccc(C)cc2)cc1,2.42%
10,CCn1cc(C(=O)NCCCN(CC(C)C)CC(C)C)c(=O)c2cc(S(=O)(=O)N3CCc4ccccc4C3)ccc21,-2.69%
11,Cc1cc(NC(=O)C2CCCN(S(=O)(=O)c3ccc(Br)s3)C2)ccc1Br (stereo unspecified),-18.9%
12,COc1ccc(CC(=O)Nc2ccc(-c3nc4ccccc4s3)cc2Cl)cc1,18.1%
13,O=C1CC(c2ccccc2)Cc2[nH]c(=O)c(-c3nc(-c4ccc(F)cc4)cs3)cc21 (stereo unspecified),-13.9%
14,CC(C)Oc1ccc(CNC(=O)C2COc3ccccc3C2)cc1 (stereo unspecified),26%
15,Cc1ccccc1-c1nc(CS(=O)CC(=O)NCCc2ccc(Cl)cc2)c(C)o1 (stereo unspecified),7.82%
16,O=C(CN1C(=O)COc2ccc(S(=O)(=O)N3CCCC3)cc21)N1CCN(c2ccccc2F)CC1,-13.3%
17,O=C1CN(C(=O)C2CCCCC2)C(c2ccccc2)c2cc(F)ccc2N1 (stereo unspecified),-7.71%
18,CCOc1ccc(C2c3c(oc4ccc(C)cc4c3=O)C(=O)N2c2nc(C)c(C)s2)cc1OC (stereo unspecified),-2.2%
19,CCOC(=O)c1cnc2ccc(OCC)cc2c1N1CCN(c2cccc(Cl)c2)CC1,-10.3%
20,COc1ccc(-c2noc(-c3ccc(N4CCCCC4)c([N+](=O)[O-])c3)n2)cc1,15.3%
21,CCCCCCOc1ccc(-c2nc3ccc(Br)cc3c(=O)o2)cc1,2.05%
22,Cc1ccc(-c2cc(C(=O)Oc3ccccc3)c3cccc(C)c3n2)cc1,22.4%
23,COc1ccccc1OCCCn1c(=O)oc2ccccc21,active: 34.1%
24,Cc1nc(C(=O)NCC(=O)c2ccccc2)c(C(F)(F)F)o1,active: 31.8%

row,SMILES,inhibition
1,Cc1sc(-c2cc3ccccc3oc2=O)nc1-c1ccc(Cl)cc1,-22.3%
2,c1ccc(C2C3=C(CCCC3)Nc3ncnn32)cc1 (stereo unspecified),active: 31.5%
3,COC(=O)c1cc(S(=O)(=O)N2CCN(c3ccc(C)cc3C)CC2)cn1C,13.9%
4,Cc1csc2nc(COc3ccc(NC(=O)COc4ccc(F)cc4)cc3)cc(=O)n12,3.38%
5,Cc1ccc(NC(=O)Cn2cc(S(=O)(=O)N3CCN(c4ccccc4F)CC3)c3ccccc3c2=O)cc1F,14.6%
6,CCOc1ccc(/C=C/c2nc(C#N)c(N(C)C)o2)cc1,-7.88%
7,COc1ccc(N2CCN(C(CNC(=O)c3ccc(C)cc3)c3ccc4c(c3)OCO4)CC2)cc1 (stereo unspecified),-11.8%
8,CCOc1ccccc1CNC(=O)c1nn(C)c2c1CS(=O)(=O)c1ccccc1-2,25.3%
9,CC(C)c1ccc(CNc2nc(-c3ccco3)nn2S(=O)(=O)c2ccccc2)cc1,4.39%
10,CN1CCN(C(=O)c2cnn(-c3cccc(F)c3)c2C2CCN(C(=O)OC(C)(C)C)CC2)CC1,16.8%
11,Cc1cc(C)c(NC(=O)c2cc(CN3CCOCC3)on2)c(C)c1,8.55%
12,CCc1ccc(NC(=O)C(Cc2ccccc2)NS(=O)(=O)c2ccc3c(c2)CCN3C(C)=O)cc1 (stereo unspecified),-1.76%
13,COc1ccc2cc(S(=O)(=O)c3ccccc3F)c(=O)oc2c1,-4.81%
14,C#CCOc1ccc(C2C(C(=O)OC)=C(C)NC3=C2C(=O)c2ccccc23)cc1OCC (stereo unspecified),6.17%
15,CCOc1ccc(Sc2cc(C(=O)NCCCOC)c3ccccc3n2)cc1,9.29%
16,CCOC(=O)c1cc(-c2ccc(C)cc2)n(CCC(=O)NCc2ccccc2)c1C,-4.12%
17,Cc1ccc(-c2nc3scc(CCNS(=O)(=O)c4ccc(C)c(C)c4)n3n2)cc1,2.01%
18,Cc1ccc(-c2noc(-c3cccnc3NCc3ccc(Cl)cc3)n2)cc1,13.1%
19,Cc1cccc(OCC(=O)Nc2ccc(C(=O)OCc3cc(=O)n4nc(C5CC5)sc4n3)cc2)c1,-16.1%
20,O=C(NCCc1nc2ccccc2n1CCOc1ccc(Cl)cc1)C1CCCCC1,12.4%
21,CCN(CC)c1ccc2cc(-c3nc4ccccc4n3C)c(=O)oc2c1,active: 39.6%
22,CCN(CC)CCNC(=O)C1CCCN(c2nnc(C)c3c(C)n(-c4ccc(Cl)cc4)nc23)C1 (stereo unspecified),5.11%
23,CCOc1ccc(NC(=O)CSc2nnc(CC)c(CC)n2)cc1,2.83%
24,CCOc1ccc(-c2cn3c(n2)sc2cc(C(=O)NCCC4=CCCCC4)ccc23)cc1,-17.3%
